The list shows a part of the results.
Tested on: PfHDP1 homeodomain (GST-tagged)
Experiment: gcPBM binding intensity (ln(normalized median fluorescence intensity)); higher = stronger DNA binding
Summary of the method: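 An Agilent 4 × 180k array of primer-extended double-stranded 36-bp intergenic genomic probes, with negative controls, was incubated for 1 h with GST-tagged P. falciparum DNA-binding domains expressed in E. coli. Alexa488 anti-GST antibody detected bound protein, scanned at 488 nm. Binding intensity is the highest Masliner-normalised natural-log median intensity across replicate spots of either probe orientation.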

| Sequence | gcPBM binding intensity (ln) |
| --- | --- |
| TATATATATATATATGTGCACATATTTATATGTTTT | 10.3 |
| CACCCATACACATACAAACACACATTCTATATATAT [CACACA_site1600] | 7.21 |
| GAAATTAAATGACATACACACTATATTATATATTTT [CACACA_site5693] | 6.36 |
| TAGATAGATTAAAATACATGCATATTATTAAAAAAT [TGCATGCA_site739] | 6.36 |
| TATCTTCAATGTGAAAGTACTTAAATTGTTATAAAA [XGTACX_site2586] | 6.3 |
| AATCATAAACATTATGCACACAAAAATAAAAAAAAA [CACACA_site8289] | 8.58 |
| ATTTAATGTATTTTGCGTACGAATTATTTTATTTCA [XGTACX_site7331] | 6.6 |
| CATACATACATACATACACACATACATATGTATATA [CACACA_site7216] | 7.57 |
| AGCATAAAAATGATATGTACATATATATATATATAT [XGTACX_site2836] | 9.34 |
| ATATAGTTCGATATAGTTAGTATGAATTGAAAAATA [CACACA_negctrl_site1826] | 6.16 |
| AAAAAAATAAAACACACACACAAAAAAATAAAAATA [CACACA_site465] | 6.91 |
| TTTTTAAAATATTTAACACACAATTTTAATGCATAA [CACACA_site6036] | 6.36 |
| GTTGTGTAATTCGTAACACACATAAAATATATATAA [CACACA_site6059] | 6.56 |
| TTTTCATTTTTTTTTTTTTTTTTTTTTCTTTTTTTT [CACACA_negctrl_site1312] | 5.86 |
| ATTTCTTTAATATACACACACCAAAACAAAAAAAAA [CACACA_site6416] | 6.86 |
| ATTTGTTCATTTGGTTGTACATAATTTATTTTTATA [XGTACX_site785] | 6.36 |
| AAAATAAAATAACGTTGTACAACATCATTTCTATAT [XGTACX_site5080] | 6.37 |
| AACAATATATTGAATAGTACATATATATAAACATAT [XGTACX_site2811] | 6.64 |
| AACATTTATAAATATTGTACATATAGATTTATATAT [XGTACX_site2662] | 6.41 |
| GGAATACAGGAAAAAAGTACAGAAAATGGAATATTA [XGTACX_site5053] | 6.39 |
| TTTAATTTGTTATACACACACAAAAAAAGTTATAAA [CACACA_site7779] | 6.55 |
| TCTTTCTTATATTTATATAATTATATTTATTTTATA [GTGCAC_negctrl_site300] | 6.67 |

| Sequence | gcPBM binding intensity (ln) |
| --- | --- |
| ATATAATGTTATAGAAGTACATGAAATACTTATTTA [XGTACX_site8850] | 6.17 |
| CATATATACACATACACACACACACGGACACGCACA [CACACA_site6910] | 7.64 |
| TATTGTATTTAATAAACACACAATATTAAAAATATA [CACACA_site4725] | 6.22 |
| ATACACATATATGTGTGTACTCACCTTTTAATATGA [XGTACX_site4349] | 6.54 |
| TGTTTAAAGGAAAAGGAGTAGTCTATTATATTATCT [CACACA_negctrl_site858] | 6.08 |
| GTATCTCATTATTCGTGTACTAAACACATAAAAATA [XGTACX_site2262] | 6.61 |
| ATCTATATCTATAATACACACTAAAGTAACAGAATA [CACACA_site7370] | 6.82 |
| GATTTACAACACGAACGTACAGAACAAAAAGGAAAA [XGTACX_site6501] | 6.77 |
| AATGTAAAAGTAAACACACACATATATATATACATA [CACACA_site2484] | 6.78 |
| TATAAAAATAAAAAAAGTACACATAAAAATATATAT [XGTACX_site5189] | 6.59 |
| TCATTCATATGTTACACACACACACGCACATAAAAA [CACACA_site7514] | 7.85 |
| TATATAATATAATTGACATGCAACCATTTTCGTGAA [TGCATGCA_site458] | 7.14 |
| AAGTTGGAAAGGTTATGTACTTATTTTTTAAAATAA [XGTACX_site204] | 6.06 |
| TATATATTCAAATGTGCATGTAAAAAAAAAAAAAAG [TGCATGCA_site126] | 8.4 |
| ATAAAAAACTCAGAGCGTACATAATTTTTTCTATTT [XGTACX_site2803] | 6.36 |
| TAACCATACATACATACACACACACCCACATATATA [CACACA_site8951] | 7.11 |
| GGCATATATATATGCACACATACATAAATACATGTG [CACACA_site5999] | 10.4 |
| AGACATTAATGAAGGTGTACATATATTTGACAGAAT [XGTACX_site655] | 6.82 |
| TCCCTAGTATACCTTAGTACATATATTATTTTGCAC [XGTACX_site2174] | 7.43 |
| CAGGAGAGTAAAAGAGTGCGAATTATTATTTTGGAG | 6.7 |
| CATATAAAAAGACACACACACACATATATATATATA [CACACA_site940] | 9.2 |
| TATTTTTATTTAGGACGTACAAAAATAAATCATATT [XGTACX_site1448] | 6.56 |

Reference: the supplement of paper PMC11417369
